The supplement of paper PMC4604168 (melanoma cell lines)
The other results are listed elsewhere or left out. Repeats are few or missing, and single values can be far off.

Tests used:
Assay in all cases: cell count relative to DMSO control; melanoma cells; higher = more viable cells
Details in all cases: library dose: low library concentration; 72 h
[1] = system: WM115
[2] = system: WM1716
[3] = system: WM1745
[4] = system: WM3526
[5] = system: WM3619
[6] = system: WM451Lu
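Note: cell number obtained by counting DAPI-stained nuclei in high-throughput microscope images with image analysis software, screen run in 1,536-well plates.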

`CC1(C)CCC(c2ccc(Cl)cc2)=C(CN2CCN(c3ccc(C(=O)NS(=O)(=O)c4ccc(N[C@H](CCN5CCOCC5)CSc5ccccc5)c(S(=O)(=O)C(F)(F)F)c4)cc3)CC2)C1` + COc1ccc2c(c1)CCC1C2CCC2(C)C(NCCCCCCN3C(=O)C=CC3=O)CCC12 [U73122] (first compound 0.4 µM, partner dose 0.4 µM) gave a cell count [1] of 92.3%, a cell count [2] of 67.3% and a cell count [3] of 10.3%. The cell count [4] was 68.4%, the cell count [5] was 82.6% and the cell count [6] was 70.8%.
Molecule `Cc1ccc(Nc2nccc(N(C)c3ccc4c(C)n(C)nc4c3)n2)cc1S(N)(=O)=O` [Pazopanib] + C=CCNC1=C2C[C@@H](C)C[C@H](OC)[C@H](O)[C@@H](C)/C=C(\C)[C@H](OC(N)=O)[C@@H](OC)/C=C\C=C(/C)C(=O)NC(=CC1=O)C2=O [Tanespimycin] (first compound 0.4 µM, partner dose 0.002 µM) has a cell count [1] of 79.6%, a cell count [2] of 86.9% and a cell count [3] of 89.1%. It also gave a cell count [4] of 88.3%, a cell count [5] of 70.8% and a cell count [6] of 86.5%.
`O=C(/C=C/c1cccnc1)NCCCCC1CCN(C(=O)c2ccccc2)CC1` + O=C(Nc1cccc(Cl)c1)Nc1ncc(CCNc2ncnc3ccsc23)s1 [SNS314] (first compound 0.01 µM, partner dose 0.0008 µM) gave a cell count [1] of 73%, a cell count [2] of 94.4% and a cell count [3] of 106%. For the same molecule, the cell count [4] was 94.8%, the cell count [5] was 92% and the cell count [6] was 121%.
For `Cc1ccc(Nc2nccc(N(C)c3ccc4c(C)n(C)nc4c3)n2)cc1S(N)(=O)=O` [Pazopanib] + O=C(O)[C@@H]1[O][Sb](=[O])([O][Sb]2(=[O])[O][C@H]([C@H](O)CO)[C@H](O)[C@H](C(=O)O)[O]2)[O][C@H]([C@H](O)CO)[C@@H]1O [stibogluconate] (first compound 0.4 µM, partner dose 2 µM), the cell count [1] was 99%, the cell count [2] was 73.2% and the cell count [3] was 100%. For the same molecule, the cell count [4] was 94.2%, the cell count [5] was 81% and the cell count [6] was 95.8%.
